PubChem BioAssay AID1745853 (National Center for Advancing Translational Sciences (NCATS), 2022)
“And” between values parts separate entries of the source, which are not always exact repeats. Equal entries are not always repeated. Some of the results follow. These are further read-outs of the screen, such as a control signal, another cell line or another target. No call is given for them.

Assays:
Assay in all cases: Primary Screen for Target Class Profiling of Small Molecule Inhibitors of Methyltransferases
[1] = biological target: Glycine N-methyltransferase (Homo sapiens) (UniProt Q14749); details: purified enzyme, MTase-Glo SAH luminescence; measured here: GNMT inhibition; at 40 µM; stronger effect = lower value
Procedure, shortened: (§1)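 Each enzyme was assayed with SAM and its substrate. SAH formation detected by MTase-Glo luminescence; single-point 40 uM screen[…].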

[2] = biological target: Guanidinoacetate N-methyltransferase (Homo sapiens) (UniProt Q14353); details: purified enzyme, MTase-Glo SAH luminescence; measured here: GAMT inhibition; at 40 µM; stronger effect = lower value
Procedure, shortened: as §1

[3] = biological target: Histamine N-methyltransferase (Homo sapiens) (UniProt P50135); details: purified enzyme, MTase-Glo SAH luminescence; measured here: HNMT inhibition; at 40 µM; stronger effect = lower value
Procedure, shortened: as §1

[4] = biological target: Nicotinamide N-methyltransferase (Homo sapiens) (UniProt P40261); details: purified enzyme, MTase-Glo SAH luminescence; measured here: NNMT inhibition; at 40 µM; stronger effect = lower value
Procedure, shortened: as §1

[5] = biological target: Phenylethanolamine N-methyltransferase (Homo sapiens) (UniProt P11086); details: purified enzyme, MTase-Glo SAH luminescence; measured here: PNMT inhibition; at 40 µM; stronger effect = lower value
Procedure, shortened: as §1
% is scaled to controls: 0 for no effect and ±100 for the full control effect.

O=C(/C=C/c1ccccc1)OC[C@]12O[C@H]1[C@@H](O)[C@@H]1C=CO[C@@H](O[C@@H]3O[C@H](CO)[C@@H](O)[C@H](O)[C@H]3O)[C@@H]12
activity change, negative = inhibition [1]: -3.39% | activity change, negative = inhibition [2]: 1.56% | activity change, negative = inhibition [3]: 5.96% | activity change, negative = inhibition [4]: -9.95% | activity change, negative = inhibition [5]: 7.39%

C=CC1(C)CC2=CCC3C(C)(C(=O)O)CCCC3(C)C2CC1OC(C)=O (stereo unspecified)
activity change, negative = inhibition [1]: 0% | activity change, negative = inhibition [2]: 6.54% | activity change, negative = inhibition [3]: 10.9% | activity change, negative = inhibition [4]: -9.91% | activity change, negative = inhibition [5]: -1.66%

N#Cc1ccc(C2CCCc3cncn32)cc1 (stereo unspecified)
activity change, negative = inhibition [1]: 1% | activity change, negative = inhibition [2]: -4.38% | activity change, negative = inhibition [3]: -8.44% | activity change, negative = inhibition [4]: -9.23% | activity change, negative = inhibition [5]: 4.55%

Cc1ccc(C(=O)N(Cc2ccco2)S(=O)(=O)c2ccc3c(c2)n(C)c(=O)n3C)cc1
activity change, negative = inhibition [1]: -2.1% | activity change, negative = inhibition [2]: 3.65% | activity change, negative = inhibition [3]: -17.8% | activity change, negative = inhibition [4]: -4.93% | activity change, negative = inhibition [5]: -2.05%

Cn1cc(C(=O)Cc2ccccc2)cc1/C=C/C(=O)NO
activity change, negative = inhibition [2]: 10.1% | activity change, negative = inhibition [4]: -6.69% | activity change, negative = inhibition [5]: 4.31%

CN(CC[C@@H](Oc1ccc(C(F)(F)F)cc1)c1ccccc1)CC(=O)O
activity change, negative = inhibition [1]: -0.461% | activity change, negative = inhibition [2]: 10.1% | activity change, negative = inhibition [3]: 7.56% | activity change, negative = inhibition [4]: -12.7% | activity change, negative = inhibition [5]: -1.82%

CC(=O)Nc1c2n(c3ccc(F)cc13)CC(C)(C(=O)NC1CCCC1)N(Cc1ccc(C)cc1)C2=O (stereo unspecified)
activity change, negative = inhibition [1]: -19.9% | activity change, negative = inhibition [2]: 1.97% | activity change, negative = inhibition [3]: -4.86% | activity change, negative = inhibition [4]: -8.03% | activity change, negative = inhibition [5]: -5.34%

CC(C)OCCCNC(=O)C1(C)Cn2c(cc3ccccc32)C(=O)N1Cc1ccc(Cl)cc1 (stereo unspecified)
activity change, negative = inhibition [1]: 2.21% | activity change, negative = inhibition [2]: 5.61% | activity change, negative = inhibition [3]: -1.01% | activity change, negative = inhibition [4]: 0.342% | activity change, negative = inhibition [5]: -0.7%

Cn1cnnc1-c1nn(C)c2c1CNCC2
activity change, negative = inhibition [1]: -0.253% | activity change, negative = inhibition [2]: -0.849% | activity change, negative = inhibition [3]: 2.2% | activity change, negative = inhibition [4]: -0.378% | activity change, negative = inhibition [5]: -0.634%

CC1(C(=O)NC2CCCCC2)Cn2c(cc3sccc32)C(=O)N1CCCc1ccccc1 (stereo unspecified)
activity change, negative = inhibition [1]: -4.04% | activity change, negative = inhibition [2]: 3.61% | activity change, negative = inhibition [3]: -1.17% | activity change, negative = inhibition [4]: 2.69% | activity change, negative = inhibition [5]: 0.656%

Cc1cccc(CN2C(=O)c3cc4ccccc4n3CC2(C)C(=O)NCc2ccccc2)c1 (stereo unspecified)
activity change, negative = inhibition [1]: 1.89% | activity change, negative = inhibition [2]: 0% | activity change, negative = inhibition [3]: 0.864% | activity change, negative = inhibition [4]: -1.16% | activity change, negative = inhibition [5]: -3.36%

COCCCN1C(=O)c2cc3occc3n2CC1(C)C(=O)NC1CCCCCCC1 (stereo unspecified)
activity change, negative = inhibition [1]: 2.38% | activity change, negative = inhibition [2]: 4.91% | activity change, negative = inhibition [3]: 6.84% | activity change, negative = inhibition [4]: -0.441% | activity change, negative = inhibition [5]: 2.13%

CCCn1c(=O)c2ccc(Cl)cc2n2c(=O)n(Cc3cccc(Cl)c3)nc12
activity change, negative = inhibition [1]: -2.64% | activity change, negative = inhibition [2]: 0.224% | activity change, negative = inhibition [3]: 4.81% | activity change, negative = inhibition [4]: -0.599% | activity change, negative = inhibition [5]: 1.2%

Cc1onc(-c2ccccc2Cl)c1C(=O)N[C@@H]1C(=O)N2[C@@H]1SC(C)(C)[C@@H]2C(=O)O
activity change, negative = inhibition [1]: 7.08% and 2.69% | activity change, negative = inhibition [2]: 5.99% and 5.33% | activity change, negative = inhibition [3]: 6.62% and -0.629% | activity change, negative = inhibition [4]: -5.91% and -15.4% | activity change, negative = inhibition [5]: 6.47% and -4.85%

Cc1ccc(Cn2c(=O)c3ccccc3n3c(=O)n(CC(=O)c4ccc(C)cc4)nc23)cc1
activity change, negative = inhibition [1]: 2.38% | activity change, negative = inhibition [2]: 1.09% | activity change, negative = inhibition [3]: 5.72% | activity change, negative = inhibition [4]: 1.56% | activity change, negative = inhibition [5]: 3.27%

O=C(NC1CCCCC1)C1c2cccn2-c2sc3c(c2C(=O)N1c1ccc(Cl)cc1)CCCC3 (stereo unspecified)
activity change, negative = inhibition [1]: -4.14% | activity change, negative = inhibition [2]: 0% | activity change, negative = inhibition [3]: 1.29% | activity change, negative = inhibition [4]: -0.46% | activity change, negative = inhibition [5]: -2.23%

COc1ccccc1Nc1nc(-c2sc(NC(C)=O)nc2C)cs1
activity change, negative = inhibition [2]: 0.057% | activity change, negative = inhibition [4]: -10.8% | activity change, negative = inhibition [5]: -5.97%

COCCNC(=O)[C@@H]1C[C@@H](O)CN1C1CCN(C(=O)Cc2ccccc2)CC1
activity change, negative = inhibition [1]: -1.63% | activity change, negative = inhibition [2]: 0.392% | activity change, negative = inhibition [3]: 0.035% | activity change, negative = inhibition [4]: -2.45% | activity change, negative = inhibition [5]: -1.94%

O=C(NCCc1ccccc1)c1ccc2c(c1)n(Cc1cccc(F)c1)c(=O)c1ccnn12
activity change, negative = inhibition [1]: -2.97% | activity change, negative = inhibition [2]: 4.72% | activity change, negative = inhibition [3]: -0.261% | activity change, negative = inhibition [4]: -6.14% | activity change, negative = inhibition [5]: 0.013%

COc1ccc(CC2C(=O)NC(C)C(=O)N(C)C3Cc4ccc(cc4)Oc4cc(ccc4OC4OC(CO)C(O)C(O)C4O)CC(C(=O)NC(C)C(=O)NC(C)C(=O)N2C)N(C)C3=O)cc1 (stereo unspecified)
activity change, negative = inhibition [1]: -3.46% | activity change, negative = inhibition [2]: -0.654% | activity change, negative = inhibition [3]: 5.04% | activity change, negative = inhibition [4]: -13.8% | activity change, negative = inhibition [5]: -7.21%
